# The list shows a part of the results. Read counts after selection give these values, which scatter widely.
# System: Drosophila AGO1 (endogenous, S2-R+ lysate)
# Assay: AGO1 loading enrichment factor (IP read count / input read count, not library-size normalised) (ratio); higher = more efficient loading into AGO1
# Conditions: randomized region: 5' 5N of miR-317 loop
# Procedure: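 HISSA: 5'-phosphorylated, 32P-labelled 20-nt ssRNA oligos (miR-317 loop, first 5 nt randomized, constant 3' part TGAAATGCAAGCAAG as printed in methods; DNA letters for RNA) incubated 1 h at 25°C in S2-R+ cell lysate. Endogenous AGO1 was immunopurified with anti-AGO1 and bound oligos were sequenced after splinted ligation.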
# 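Note: S2-R+ lysate came from cells stably expressing FLAG-tagged AGO2, enrichment per 5N variant computed with FASTAptamer, reads lacking the constant 3′ segment discarded.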
row,Sequence,AGO1 loading enrichment factor
1,TAGGATGAAATGCAAGCAAG,0.351
2,TATGCTGAAATGCAAGCAAG,0.664
3,TGCCGTGAAATGCAAGCAAG,0.179
4,TGGAGTGAAATGCAAGCAAG,0.278
5,CGTTCTGAAATGCAAGCAAG,0.277
6,GGGACTGAAATGCAAGCAAG,0.981
7,AGCACTGAAATGCAAGCAAG,0.0754
8,GGCCCTGAAATGCAAGCAAG,0.111
9,TAGCGTGAAATGCAAGCAAG,0.296
10,GGGTATGAAATGCAAGCAAG,0.216
11,CGCTCTGAAATGCAAGCAAG,0.0313
12,TGACATGAAATGCAAGCAAG,0.26
13,AGTAGTGAAATGCAAGCAAG,0.0927
14,TCGTGTGAAATGCAAGCAAG,0.218
15,TGCAGTGAAATGCAAGCAAG,0.0388
16,ATGAATGAAATGCAAGCAAG,0.421
17,TACTGTGAAATGCAAGCAAG,0.658
18,ATCCCTGAAATGCAAGCAAG,0.463
19,CGTCCTGAAATGCAAGCAAG,0.00539
20,GCACATGAAATGCAAGCAAG,0.0369
21,CCAAGTGAAATGCAAGCAAG,0.0628
22,GGCAGTGAAATGCAAGCAAG,0.045
23,CGTACTGAAATGCAAGCAAG,0.105
24,ACACTTGAAATGCAAGCAAG,0.0116
25,GGCCGTGAAATGCAAGCAAG,0.194

row,Sequence,AGO1 loading enrichment factor
1,ACTCGTGAAATGCAAGCAAG,0.0663
2,GTTTATGAAATGCAAGCAAG,0.114
3,CGCAATGAAATGCAAGCAAG,0.0745
4,GCACCTGAAATGCAAGCAAG,0.201
5,GTCCATGAAATGCAAGCAAG,0.139
6,ATGGGTGAAATGCAAGCAAG,0.468
7,GTAAATGAAATGCAAGCAAG,0.133
8,TTTCCTGAAATGCAAGCAAG,0.149
9,CCTACTGAAATGCAAGCAAG,0.137
10,GGATGTGAAATGCAAGCAAG,0.512
11,GGTTGTGAAATGCAAGCAAG,0.0348
12,ACACCTGAAATGCAAGCAAG,0.369
13,ATTAGTGAAATGCAAGCAAG,0.115
14,ACACGTGAAATGCAAGCAAG,0.101
15,TGACGTGAAATGCAAGCAAG,0.544
16,CCGGTTGAAATGCAAGCAAG,0.0802
17,GTTGTTGAAATGCAAGCAAG,0.228
18,CCGTGTGAAATGCAAGCAAG,0.0201
19,CGTCGTGAAATGCAAGCAAG,0.167
20,TCCATTGAAATGCAAGCAAG,0.353
21,TAGAATGAAATGCAAGCAAG,0.349
22,TGAGCTGAAATGCAAGCAAG,0.0623
23,AATAGTGAAATGCAAGCAAG,0.155
24,GATAATGAAATGCAAGCAAG,0.136
25,ATAAGTGAAATGCAAGCAAG,0.112

row,Sequence,AGO1 loading enrichment factor
1,ACTCTTGAAATGCAAGCAAG,0.126
2,CATATTGAAATGCAAGCAAG,0.0351
3,CAATCTGAAATGCAAGCAAG,0.0465
4,CCTAGTGAAATGCAAGCAAG,0.12
5,CTAAGTGAAATGCAAGCAAG,0.0807
6,GGGATTGAAATGCAAGCAAG,0.337
7,TTAATTGAAATGCAAGCAAG,0.161
8,TCAAATGAAATGCAAGCAAG,0.325
9,CATACTGAAATGCAAGCAAG,0.201
10,ACCGATGAAATGCAAGCAAG,0.192
11,GACTGTGAAATGCAAGCAAG,0.265
12,GCGTGTGAAATGCAAGCAAG,0.00987
13,CCGCTTGAAATGCAAGCAAG,0.00322
14,GAGAATGAAATGCAAGCAAG,0.171
15,CATTATGAAATGCAAGCAAG,0.0709
16,ATAACTGAAATGCAAGCAAG,0.103
17,ATGATTGAAATGCAAGCAAG,0.422
18,AAAGCTGAAATGCAAGCAAG,0.0445
19,TATAGTGAAATGCAAGCAAG,0.338
20,GAAACTGAAATGCAAGCAAG,0.145
21,GAAGGTGAAATGCAAGCAAG,0.279
22,TGGCATGAAATGCAAGCAAG,0.132
23,TTGAGTGAAATGCAAGCAAG,0.602
24,TTGGCTGAAATGCAAGCAAG,0.219
25,ATTGATGAAATGCAAGCAAG,0.194

row,Sequence,AGO1 loading enrichment factor
1,GTTTCTGAAATGCAAGCAAG,0.0601
2,CGATTTGAAATGCAAGCAAG,0.115
3,CCGCCTGAAATGCAAGCAAG,0.417
4,ACTTTTGAAATGCAAGCAAG,0.117
5,GCTGGTGAAATGCAAGCAAG,0.027
6,TCAGGTGAAATGCAAGCAAG,0.251
7,TTTGCTGAAATGCAAGCAAG,1.01
8,AGGACTGAAATGCAAGCAAG,0.167
9,TGAACTGAAATGCAAGCAAG,0.225
10,ACAATTGAAATGCAAGCAAG,0.181
11,CCTCATGAAATGCAAGCAAG,0.225
12,CTGAATGAAATGCAAGCAAG,0.345
13,AGTACTGAAATGCAAGCAAG,0.0807
14,ACTTATGAAATGCAAGCAAG,0.185
15,GTGACTGAAATGCAAGCAAG,1.24
16,CACCTTGAAATGCAAGCAAG,0.00322
17,AGACTTGAAATGCAAGCAAG,0.0309
18,TACAATGAAATGCAAGCAAG,0.338
19,GCTGCTGAAATGCAAGCAAG,0.0482
20,GGGCATGAAATGCAAGCAAG,0.0806
21,AGCCATGAAATGCAAGCAAG,0.203
22,CGTGTTGAAATGCAAGCAAG,0.0666
23,TTTATTGAAATGCAAGCAAG,0.239
24,GATACTGAAATGCAAGCAAG,0.173
